Reference: the supplement of paper PMC3334620
The full ranking holds about 33,000 sequences; the median of “E-score (-0.5 to 0.5)” is about -0.012, and the highest 2% start at about 0.29. This is one part of the list.

biological target: T1, Ybr033w (UniProt P38073); test: PBM E-score (8-mer binding enrichment) (E-score (-0.5 to 0.5)); higher = stronger / more preferred TF binding; most listed sequences are background and not binding sites; settings: protein concentration: 200 nM; construct: GST-full length
T1 sequence: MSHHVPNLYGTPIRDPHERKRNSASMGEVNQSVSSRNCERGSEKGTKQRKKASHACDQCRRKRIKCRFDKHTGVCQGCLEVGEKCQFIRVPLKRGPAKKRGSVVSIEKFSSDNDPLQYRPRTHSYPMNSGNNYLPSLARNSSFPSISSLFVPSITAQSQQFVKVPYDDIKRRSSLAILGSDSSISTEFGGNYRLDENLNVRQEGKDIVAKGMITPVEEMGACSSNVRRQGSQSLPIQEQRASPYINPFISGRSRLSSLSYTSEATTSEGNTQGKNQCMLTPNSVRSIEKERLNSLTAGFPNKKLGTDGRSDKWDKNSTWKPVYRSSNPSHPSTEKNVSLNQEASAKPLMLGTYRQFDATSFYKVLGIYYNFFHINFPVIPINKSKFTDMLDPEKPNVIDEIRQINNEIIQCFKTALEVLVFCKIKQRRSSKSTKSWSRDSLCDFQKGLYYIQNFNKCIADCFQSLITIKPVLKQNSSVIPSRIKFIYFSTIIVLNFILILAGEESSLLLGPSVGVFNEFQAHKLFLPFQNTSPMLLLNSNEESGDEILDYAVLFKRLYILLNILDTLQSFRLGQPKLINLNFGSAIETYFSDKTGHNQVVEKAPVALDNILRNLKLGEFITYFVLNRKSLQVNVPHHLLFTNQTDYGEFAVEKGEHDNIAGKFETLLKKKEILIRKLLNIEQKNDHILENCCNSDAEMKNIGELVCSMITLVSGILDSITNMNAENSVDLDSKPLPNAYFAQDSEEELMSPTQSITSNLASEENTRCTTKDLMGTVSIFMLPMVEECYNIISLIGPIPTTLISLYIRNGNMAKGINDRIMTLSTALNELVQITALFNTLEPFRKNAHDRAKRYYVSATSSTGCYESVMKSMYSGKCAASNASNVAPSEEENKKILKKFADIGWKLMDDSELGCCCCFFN
Procedure, shortened: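 Universal all-10-mer Agilent arrays, fresh or stripped once, were converted to double-stranded form by primer extension. GST-tagged yeast transcription factors from PURExpress in vitro transcription/translation, full-length or DNA-binding domain only, were applied at about 100-200 nM and detected with fluorescent anti-GST. After masliner normalisation, the Universal PBM Analysis Suite scored each ungapped eight-base word together with its reverse complement by E-score.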

Sequence	PBM E-score
GCCGTCGC	-0.0905
CTATCTGA	-0.0868
CAGGTCAC	-0.329
CGATTTCC	0.00799
TAATCTGA	0.227
ACGCTTTA	-0.0983
GTCCCACA	0.0224
AGTAACTC	0.103
ATGTGCTA	0.208
AACTTGAG	-0.167
CGACCATC	-0.151
CATCCACA	0.139
GGACAGGA	-0.146
ACGCTAAG	-0.00684
ATCACGAT	-0.0335
GTAGTACA	0.0863
GTGTGAAA	0.082
ATCGAAGG	0.133
ATAAAGAA	0.291
ACTATTAG	0.111
CATGTAAA	0.129
ACTCCGAA	0.0874
AAAAGGTA	0.0903
AATACCAT	0.207
GGAAGACA	-0.156

Sequence	PBM E-score
TAGTCATA	0.109
TACCCGGA	0.153
CCGAGTCA	-0.0886
GATAAAAC	0.323
AGTCAGCC	-0.243
CCAATGGC	-0.0826
CACCAAAA	0.169
AGGAGTGG	-0.224
CACTAGGC	0.0497
ACCAGGGC	-0.217
ATCGGTAG	-0.0973
TAAGGGCA	-0.0146
CAATCATA	0.235
TCTGGTCA	0.0139
ATTCAAGC	0.221
ACTACGGA	-0.0746
AACACTGC	0.14
GTGCTGTA	-0.0114
CGCTTGTC	-0.108
GAGACCGC	-0.201
CATGAATC	-0.0342
CCAGCATC	-0.129
AATCGTAA	0.127
CTACCCCA	-0.102
ACCGCTCT	-0.201

Sequence	PBM E-score
AGCAGCGG	-0.284
CTGATCTA	-0.016
CCCGGTCG	-0.214
ATGGCTCC	-0.115
AAACGTTC	0.0667
CAGCAACG	0.25
GGACGACC	-0.35
AGCTGAGA	0.0476
AGCTAGAA	-0.106
AAATTGCC	0.145
TAAAGTTA	0.358
GAGGCTCC	-0.0793
CCGCGACC	-0.312
ATAGTTTG	0.173
AAGTTCCA	0.071
CAAGGGCC	-0.343
AGCCACGC	-0.147
CAAATGAA	0.105
TCCCCCCA	-0.219
CCCGCAGA	-0.114
ATGCGAGG	0.0583
GCGGTTTA	0.0281
ATGCGATA	0.0197
AATCCTAG	-0.00295
GCCTTGAA	-0.134

Sequence	PBM E-score
TCTACACA	0.0567
AAAACCCC	-0.16
CCACGCAG	-0.0756
GCGAACCA	0.129
ATGAAAGG	0.105
AAAGATGC	0.0969
ATACCGAT	-0.0135
TAAGAAGA	0.181
TACCTTGA	0.0473
AATTATAA	0.253
CGACTCCC	-0.0642
ACCATACT	0.163
AGTATGGG	-0.00901
AAATAGGC	0.0382
ATGTCAAG	0.0775
CTAATAGC	0.0371
CCCAAATA	-0.0463
TAAATGGA	0.227
GAAGACCC	-0.0177
GTATAAAC	0.158
AAGTGCGC	0.0294
GAGGCGCA	-0.122
GGAGCCTA	-0.159
CATAAGAA	0.239
CGAGCTAC	0.00404

Sequence	PBM E-score
AGGTTGCG	-0.0729
TACGGTCA	-0.106
ACCGTTGC	-0.199
TCGCGGCA	-0.0938
CACGACTG	-0.175
CCTACGGC	-0.162
ATGCGATC	-0.069
AAACATAC	0.0502
AGTCCTAC	0.0159
GATCATAA	0.144
GGAGGTCA	-0.151
AGGACCAT	-0.165
CATTAATC	0.252
AGATACAT	0.0853
TCACGGGA	-0.0099
TGCGCCCA	-0.216
TGACAAAA	0.193
ACCCCTCA	-0.21
GGAAAGTA	0.0884
AACTGTGA	-0.00839
CCCGTCAG	-0.245
CAGCTTAA	0.0823
GAACCTGA	-0.00273
ACACGACT	0.0367
ACCTTCGA	0.0304

Sequence	PBM E-score
GGACAACA	-0.128
CATCGCAA	-0.102
CATGACAG	0.0177
ATACATAG	0.0778
CTACGCGA	-0.0526
ATAAAACC	0.0831
AACTTCAA	0.193
GTGAAATA	0.19
ATAAGAGA	0.179
GGACACCC	-0.298
ACGAAAGT	0.00157
AAATGAGT	0.185
GCAAGCGC	-0.00847
AACCAATC	0.133
TGGACCCA	-0.122
AAGCGAGC	0.0259
AACGTCCC	-0.166
TAAGCCCA	0.0539
AAAGGAGC	-0.0899
CACGCTAC	-0.244
GAAGTACA	0.0302
CGATCGCC	-0.139
CCAGCTAC	-0.0708
GAACCTCA	-0.156
ACTGGTGG	-0.0618

Sequence	PBM E-score
GGGTCGGA	-0.25
CTATTACA	0.135
AAGGGTCC	-0.163
CGAGTGTC	-0.227
GTGGACAA	0.14
AGCGCCTA	-0.167
CAGCTTTA	0.0931
CGGGTGTC	-0.164
ACTAGCCA	0.0538
AAGACTCC	-0.106
AAACTTGG	-0.0434
ATAGCCTC	-0.163
TGTCAACA	0.0334
GGGTTTCA	0.0387
GCCGGATA	0.156
CGCGCTAC	0.0437
GGTCCCGA	-0.145
CAGACAAC	0.0268
ATGTAACC	-0.169
CCTACTGA	0.00716
CTCTTTCC	-0.171
ACACGGAG	-0.0714
